T1: UNK ZnF1-6 (called full-length) (human, UniProt Q9C0B0 30-357)
T1 sequence: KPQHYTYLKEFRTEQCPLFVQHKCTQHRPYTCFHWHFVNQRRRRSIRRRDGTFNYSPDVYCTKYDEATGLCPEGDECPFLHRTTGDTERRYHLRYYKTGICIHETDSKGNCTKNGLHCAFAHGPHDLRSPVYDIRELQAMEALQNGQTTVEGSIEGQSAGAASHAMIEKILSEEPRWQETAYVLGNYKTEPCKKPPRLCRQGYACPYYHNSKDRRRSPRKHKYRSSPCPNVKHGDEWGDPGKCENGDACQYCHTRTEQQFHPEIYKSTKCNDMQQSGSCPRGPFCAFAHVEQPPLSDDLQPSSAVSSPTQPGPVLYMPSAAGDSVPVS

B1: chr7:74121655:74121756:+|3pUTR|ENSG00000106683|msi1|FALSE|unique (ssRNA)
RNA: GGGAGUUCUACAGUCCGACGAUCGCCCCUUUCCACACGCCGCUGCCCCAGCAACCCUGUUCACGCUCCACCUGUCUGGUCCAUAGCUCCCUGGAGGCUGGGCCAGGAGGCAGCCUCCGAACCAUGCCCCAUAUAACGCUUGGGCAACAGAGGAUUGAGCAUCA
B2: ENSG00000198589:be:win_3701|CDS|ENSG00000198589|bound_else_gene|NA|bound_elsewhere_windowed (ssRNA)
RNA: GGGAGUUCUACAGUCCGACGAUCAGGCUUCUUCUGAGCAAAAGAUUGCGAAGUUGGAUGUUUCCAAUGUUGCUACAGAUACUGAGAGGCUGGAGUUGAAGGCCAGUCCCAACGUGGAAGCACCUCAACCUCAUCGACAUGUGCCAACAGAGGAUUGAGCAUCA
B3: chr4:25747873:25747886:-|3pUTR|ENSG00000091490|msi1_unk|FALSE|overlapping (ssRNA)
RNA: GGGAGUUCUACAGUCCGACGAUCUAGCAGUUAUAAGGCACCUUGAAAUAAAUUGUUUGUGCCUGGAAAUGCAGGGAGGGCAAUAGCUUUGUAAAUUGGUUUACAUUUUUCUCCUUGAAUUUUUCUAGGGUCCUAGUGCUUCCGCAACAGAGGAUUGAGCAUCA
B4: chr6:36855602:36855703:-|3pUTR|ENSG00000137168|msi1|total|mutant (ssRNA)
RNA: GGGAGUUCUACAGUCCGACGAUCGUCAUGAAGCUCCGGAGGCCUGGCAUCUUGGGUGAGUCCGAGAUGGAAGUACAUUUUAACCGGAUGCUUCUUUUCUCUUCCCCCAGUGCCCCGGUUGCCAGAGCAUUUGCACAAAUGCCCCAACAGAGGAUUGAGCAUCA
B5: ENSG00000198589:be:win_1901|CDS|ENSG00000198589|bound_else_gene|NA|bound_elsewhere_windowed (ssRNA)
RNA: GGGAGUUCUACAGUCCGACGAUCGUGGUAUCACCCCAAAAGGAUUAGAUGGACCGCGACCUAAUCAAAAAGAAAUGCUUUCUCUACGAGCAUUCUUGUUGAUGUUCAUUAAGCAAUUAGUGAUGAAGGAUUCUGGAGUAAAGGCAACAGAGGAUUGAGCAUCA
B6: chr9:34664162:34665309:-|three_prime_utr|ENSG00000187186|control|control|control (ssRNA)
RNA: GGGAGUUCUACAGUCCGACGAUCGGACCCGCCCCGGGCAUGGACGGGACUCAGUCUCUGAGGACCCAUCGGGGGGAAUCCGGUAGCUCCCGCCCCGCCUCAUGCCAGUGUCGGGUCGCCCCACAGCUCGGCGCACCCCGGGGACAACAGAGGAUUGAGCAUCA
B7: ENSG00000198589:be:win_9251|3pUTR|ENSG00000198589|bound_else_gene|NA|bound_elsewhere_windowed (ssRNA)
RNA: GGGAGUUCUACAGUCCGACGAUCGGAAAUGCUCUUGAGCUCACAACAUUUGUUUUUCUUUUAAAGUAAAUGCAAGUACCAAAGCUCACUACUGCGGUUUGCCUGUGCCUGGACAAUGAGGCGGAGCCACUGUUGUUUUGUUGGCAACAGAGGAUUGAGCAUCA
B8: chr15:34752480:34753372:-|CDS|ENSG00000159248|control|control|control (ssRNA)
RNA: GGGAGUUCUACAGUCCGACGAUCCCCCUGCAUCAAGGAGGUGGAAUGUUAUGUGUCCCGGCCAACUGAGAAGACUGUCUUUCUAGUGUUCAUGUUUGCUGUAAGUGGCAUCUGUGUUGUGCUCAACCUGGCUGAACUCAACCACAACAGAGGAUUGAGCAUCA
B9: chr3:53865378:53865479:+|3pUTR|ENSG00000056736|unk|FALSE|unique (ssRNA)
RNA: GGGAGUUCUACAGUCCGACGAUCAUUACAGGGAAAAAACGUGUGAUGAUCCUGAAGCUUACUAUGCAGCCUACAAACAGCCUUAGUAAUUAAAACAUUUUAUACCAAUAAAAUUUUCAAAUAUUGCUAACUAAUGUAGCAUUACAACAGAGGAUUGAGCAUCA
B10: chr11:128839127:128840264:-|CDS|ENSG00000151704|control|control|control (ssRNA)
RNA: GGGAGUUCUACAGUCCGACGAUCAAGACAGUGGAAGUGGAGACCCCUCACUGUGCCAUGUGCCUUUAUAAUGAGAAAGAUGUUAGAGCCAGGAUGAAGAGAGGCUAUGACAACCCCAACUUCAUCUUGUCAGAAGUCAAUGAACAACAGAGGAUUGAGCAUCA
B11: ENSG00000107863:be:win_4001|CDS|ENSG00000107863|bound_else_gene|NA|bound_elsewhere_windowed (ssRNA)
RNA: GGGAGUUCUACAGUCCGACGAUCACCAUGACUGGUUUUUCACAGAAGAAGGUGCUGAAGAGCCUCUUACAACAGUGCAGGAGGAAAGCACAGUAGACUCCCAGCCAGUGCCAAACAUAGAUCAUUUACUCACCAACAUUGGAACAACAGAGGAUUGAGCAUCA
B12: chr10:91841327:91841437:+|CDS|ENSG00000107854|unk|total|mutant (ssRNA)
RNA: GGGAGUUCUACAGUCCGACGAUCUUCUUAUGGACAUUAUGAAGUUGCAGAACUUCUUGUUAAACAUGGAGCAGCCGUUAAUGCCGCUGAUUUAUGGAAAUUUACACCUUUACAUGAAGCAGCAGCAAAAGGAAAAUAUGAAAUCAACAGAGGAUUGAGCAUCA
B13: chr20:58910839:58911044:+|3pUTR|ENSG00000087460|msi1_unk|total|mutant (ssRNA)
RNA: GGGAGUUCUACAGUCCGACGAUCCCUUAAGCACAAUUAAUUAAAAGUGAAACGUAAUUGUACAAGCAGUUAAUCACCCACCACCGGGCAUGAUUAACAAAGCAACCUUUCCCUUCCCCCGAGUGAUUUUGCGAAACCCCCUUUCAACAGAGGAUUGAGCAUCA
B14: ENSG00000177426:stop:overlap|stop_codon|ENSG00000177426|stop_codon|NA|stop_codon (ssRNA)
RNA: GGGAGUUCUACAGUCCGACGAUCCUCAAAGACAGAAGGAAUAUCUUUUUAUUGUAAACUUGAUAGUGUUAAAAGCUAAUAACUAGCUAUUUAGAGAACACAGAAACACUUGACAGUCAUCUAUCAGAUAGCAUUUCCUUUAAUCAACAGAGGAUUGAGCAUCA
B15: ENSG00000136451:be:win_2101|3pUTR|ENSG00000136451|bound_else_gene|NA|bound_elsewhere_windowed (ssRNA)
RNA: GGGAGUUCUACAGUCCGACGAUCAUGUUAAUUUCAGGCAGCAUUCCCUAUGGGAAAGGUGAUACCAGCUCUGAUAUGCAAAGCAUAUGAUAAUUUAUCAUUCUAACUUCAACGUAUAAUAGGGAUUGUGACCUGAUAUUUGGACAACAGAGGAUUGAGCAUCA
B16: chr19:48404743:48404844:+|CDS|ENSG00000105464|unk|FALSE|unique (ssRNA)
RNA: GGGAGUUCUACAGUCCGACGAUCCGAGCAACAGCUUCAGGUCAUCUUUGAGGUGCUGGAGGAGUAUGACUGGACGUCCUUUGUAGCCGUGACCACUCGUGCCCCUGGCCACCGGGCCUUCCUGUCCUACAUUGAGGUGCUGACCAACAGAGGAUUGAGCAUCA
B17: chr12:13083531:13085147:-|three_prime_utr|ENSG00000111305|control|control|control (ssRNA)
RNA: GGGAGUUCUACAGUCCGACGAUCUCCGAGCUGCGGAACAAGGGAUUUCAAAGAGGGGCCAGCCAGGAGCUGAAAGAAGCAGUUAGGUCAUCUGUAGAGGAAGAGCAGUGUUAGGAGUUAAGCGGGUUUGGGGAGUAGGCUUGACAACAGAGGAUUGAGCAUCA
B18: chr9:101390585:101390694:-|CDS|ENSG00000136897|unk|total|mutant (ssRNA)
RNA: GGGAGUUCUACAGUCCGACGAUCUAAUUGGCAAGACAUCUCCCUGGAAGACCGUCGUCUAAAGUUCAAUCUUCUGGCUCAUUCCGCUGAUGACUUGGGUCAUGCCGUCCCUAACUCCAGACUCCACCAGAUGUGCAGGGUCCGCAACAGAGGAUUGAGCAUCA
B19: ENSG00000084774:stop:overlap|stop_codon|ENSG00000084774|stop_codon|NA|stop_codon (ssRNA)
RNA: GGGAGUUCUACAGUCCGACGAUCAGGCUGAGAACGGCAUGUACAUCCGCAUGGCUCUGUUAGCCACCGUGCUGGGCCGUUUCUAGGGCCUGGCUUCCUCAGCCUCUUCUCUUUAGGCCCAGCUGCUGGGCAAGGAAUUCCAGUCAACAGAGGAUUGAGCAUCA
B20: chr5:140245379:140245480:-|3pUTR|ENSG00000113068|msi1|total|mutant (ssRNA)
RNA: GGGAGUUCUACAGUCCGACGAUCUCUUCUCUUUUCCCUUCCUGUACCUUUGACUAACGCUCAGCUUCCGGGCCUGCAUGCAGCCGACAGAAGAGGAAGAAAGAACAGAUGUUCACAGCUGAAUCUCAGUGAACAGAACCGCAGCAACAGAGGAUUGAGCAUCA
B21: chr17:65014400:65014519:-|CDS|ENSG00000120063|unk|total|mutant (ssRNA)
RNA: GGGAGUUCUACAGUCCGACGAUCAAACAAGACAGACUUGCUUGAGGAGAAGGUGCAAAUUGUGAGCAUCAAAGACUAUUUCCCCGAAUUUGAAGGGGAUCCCCACUGCUUAAGAGACGUCCAAAAAUUCCUGGUGGAAUGUUUCAACAGAGGAUUGAGCAUCA
B22: ENSG00000198589:be:win_7551|CDS|ENSG00000198589|bound_else_gene|NA|bound_elsewhere_windowed (ssRNA)
RNA: GGGAGUUCUACAGUCCGACGAUCGCCUGGUUUGGCAACUCCCGCUGUGAUCACAGUCACUGCUAACAGGUUAUUUGCGGUGAACAAAUGGCACAACCUUCCUGCUCAUCAAGGUGCUGUACAAGACCAGCCAUACCAGCUGCCCAACAGAGGAUUGAGCAUCA

Consider 22 molecules from article PMC12136788.

This is one part of the list.

This test has as its target T1, UNK ZnF1-6 (called full-length). Description: nsRBNS (natural sequence RNA bind-n-seq); RBNS binding buffer (assumed for nsRBNS): 25 mM Tris pH 7.5, 150 mM KCl, 3 mM MgCl2, 0.01% Triton X-100, 500 ug/ml BSA, 20 U/ml SUPERase-In, 4 C; UNK is unkempt and MSI1 is Musashi-1; names of the RNAs are library labels; protein concentration not given here; high values mean tight binding.
Regarding B1, the binding signal turned out to be 1.2 enrichment R. As for B2, the binding signal was 0.462 enrichment R. As for B3, the figure is 1.81 enrichment R; as for B4, 0.434 enrichment R; as for B5, 0.55 enrichment R. Next, B6: 0.575 enrichment R; B7: 0.637 enrichment R; B8: 0.717 enrichment R. In turn, B9 displayed a binding signal of 0.777 enrichment R. B10: the binding signal amounted to 0.442 enrichment R. In turn, B11 showed a binding signal of 1.09 enrichment R. With B12, the binding signal is 0.509 enrichment R. Molecule B13 returned a binding signal of 0.563 enrichment R. B14 had a binding signal of 0.689 enrichment R. Next, B15: 0.282 enrichment R. As for B16, the figure is 0.537 enrichment R; as for B17, 1.4 enrichment R; as for B18, 0.623 enrichment R. Next, B19: 1.28 enrichment R; B20: 0.57 enrichment R. As to B21, the binding signal stood at 0.375 enrichment R. B22 gave a binding signal of 0.86 enrichment R.
